Experimental data from US20250163125A1 (Pfizer, published 2025).
Positions count from the first letter of the chain named.

Assays:
recombinant human CD2 [1] = target: T1, recombinant human CD2 (human, UniProt P06729 25-209, biotinylated (site not stated)); test: SPR (Biacore T200), biotinylated CD2 on SA chip, equilibrium model
T1 construct: It was captured on a streptavidin chip in SPR; also called hCD2-biotin; human recombinant CD2
T1 sequence: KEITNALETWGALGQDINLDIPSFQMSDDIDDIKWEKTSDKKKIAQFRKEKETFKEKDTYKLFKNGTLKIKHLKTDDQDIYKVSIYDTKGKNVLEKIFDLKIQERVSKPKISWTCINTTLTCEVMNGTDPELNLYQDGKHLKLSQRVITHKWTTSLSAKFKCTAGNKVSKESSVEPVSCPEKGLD

[2] = target: T2, recombinant cynomolgus CD2 (cynomolgus monkey, UniProt Q6SZ61 25-209, limits assumed, biotinylated (site not stated)); test: as above
T2 construct: also called cyno recombinant CD2; cyno CD2
T2 sequence (looked up): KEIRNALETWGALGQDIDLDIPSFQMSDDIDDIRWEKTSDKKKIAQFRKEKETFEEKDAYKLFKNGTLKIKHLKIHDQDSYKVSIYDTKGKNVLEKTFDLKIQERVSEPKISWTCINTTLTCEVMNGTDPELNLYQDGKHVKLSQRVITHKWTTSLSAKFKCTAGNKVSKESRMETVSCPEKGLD

recombinant human CD2 [3] = target: T1, recombinant human CD2; test: SPR (Biacore T200): biotinylated CD2 captured on a streptavidin chip, LFA3-Fc variant injected, equilibrium binding model; n=1-3 exp
recombinant human CD2 [4] = target: T1, recombinant human CD2; test: SPR (Biacore T200): biotinylated human CD2 captured on a streptavidin chip, LFA3-Fc variant injected, equilibrium binding model; average of triplicate measurements
recombinant human CD2 [5] = target: T1, recombinant human CD2; test: SPR (Biacore T200): biotinylated CD2 captured on a streptavidin chip, LFA3-Fc variant injected, equilibrium binding model; n=4-7
[6] = target: T2, recombinant cynomolgus CD2; test: SPR, cyno recombinant CD2
[7] = target: T2, recombinant cynomolgus CD2; test: SPR (Biacore T200): biotinylated cyno CD2 captured on a streptavidin chip, LFA3-Fc variant injected, equilibrium binding model; average of triplicate measurements
mouse CD2 = target: T3, mouse CD2 (mouse, UniProt P08920 23-203, limits assumed); test: Biacore CD2 binding
T3 sequence (looked up): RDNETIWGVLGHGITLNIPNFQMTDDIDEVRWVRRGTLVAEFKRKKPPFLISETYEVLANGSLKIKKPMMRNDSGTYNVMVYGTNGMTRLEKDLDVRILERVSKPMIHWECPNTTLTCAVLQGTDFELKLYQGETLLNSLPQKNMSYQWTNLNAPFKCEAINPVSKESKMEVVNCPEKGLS

rat CD2 = target: T4, rat CD2 (rat, UniProt P08921 23-202, limits assumed); test: Biacore CD2 binding
T4 sequence (looked up): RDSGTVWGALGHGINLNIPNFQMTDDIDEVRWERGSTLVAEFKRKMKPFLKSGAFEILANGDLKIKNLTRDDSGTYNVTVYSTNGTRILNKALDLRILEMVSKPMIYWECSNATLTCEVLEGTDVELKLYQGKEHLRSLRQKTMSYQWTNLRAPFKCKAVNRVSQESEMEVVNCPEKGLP

[8] = target: T2, recombinant cynomolgus CD2; test: Biacore CD2 binding

B1: LFA3-Fc WT (wild type LFA3-Fc fusion protein) (Fc fusion)
chain: FSQQIYGVVYGNVTFHVPSNVPLKEVLWKKQKDKVAELENSEFRAFSSFKNRVYLDTVSGSLTIYNLTSSDEDEYEMESPNITDTMKFFLYV[human IgG1 Fc not shown]
notes: also called WT LFA3-Fc; LFA3-WT
With B1 the Kd (recombinant human CD2 [1]) was 1.41 to 1.47 µM, the Kd [2] was 1.5 µM and the Kd (recombinant human CD2 [3]) was 1.41 µM. It also gave a Kd (recombinant human CD2 [4]) of 1.47 µM, a Kd (recombinant human CD2 [5]) of 1.41 µM and a Kd [6] of 1.5 µM. The Kd [7] was 1.5 µM.

B2: CM3d1-Pfe (Fc fusion)
LFA3 domain-Fc fusion chain: FSQQIYGVVYGNVTFHVPSNVPLKEVLWKKQKDKVVEFENSEVRAFSSFKNRVYLDTVSGSLTIYNLTSSDEDEYEMESRNPYRDFKFFLYVL[human IgG1 Fc not shown]
notes: Second-generation Loop library design
For B2, the Kd (recombinant human CD2 [3]) was 0.088 µM.

B3: CM1d1-Pfe (Fc fusion)
LFA3 domain-Fc fusion chain: B2 LFA3 domain-Fc fusion chain with P82G, Y83G, R84P
notes: as for B2
B3 showed a Kd (recombinant human CD2 [3]) of 0.13 µM.

B4: CM2d1-Pfe (Fc fusion)
LFA3 domain-Fc fusion chain: B2 LFA3 domain-Fc fusion chain with D85R
notes: as for B2
B4 was tested, and the Kd (recombinant human CD2 [3]) was 0.1 µM.

B5: CM5d1-Pfe (Fc fusion)
LFA3 domain-Fc fusion chain: B2 LFA3 domain-Fc fusion chain with R80W, D85R
notes: as for B2
With B5 the Kd (recombinant human CD2 [3]) was 0.063 µM.

B6: CM6d1-Pfe (Fc fusion)
LFA3 domain-Fc fusion chain: B2 LFA3 domain-Fc fusion chain with R80W
notes: as for B2
Binder B6 has a Kd (recombinant human CD2 [3]) of 0.061 µM.

B7: LFA3-Fc M1d1 (M1d1 LFA3-Fc fusion protein) (Fc fusion)
chain: B2 LFA3 domain-Fc fusion chain with R80P, P82I, Y83T, R84D, D85T
notes: also called M1d1-Pfe
B7 was tested, and the Kd [2] was 1.06 µM, the Kd (recombinant human CD2 [4]) was 1.08 µM and the binding result (mouse CD2) was “no binding”. The binding result (rat CD2) was “no binding”, the Kd [8] was 1.35 µM and the Kd [6] was 1.06 µM. For the same binder, the Kd [7] was 1.06 µM.

B8: M4d1-Pfe (Fc fusion)
LFA3 domain-Fc fusion chain: B2 LFA3 domain-Fc fusion chain with A45V, M77F, R80P, P82I, Y83T, R84D, D85T
B8 showed a Kd (recombinant human CD2 [3]) of 0.75 µM and a Kd (recombinant human CD2 [5]) of 0.75 µM.

B9: M7-d1-Pfe (Fc fusion)
LFA3 domain-Fc fusion chain: B2 LFA3 domain-Fc fusion chain with R80P, P82I, Y83T, R84D, D85T, F86M
B9 was tested, and the Kd (recombinant human CD2 [5]) was 0.92 µM.

B10: ML1d1-Pfe (Fc fusion)
LFA3 domain-Fc fusion chain: B2 LFA3 domain-Fc fusion chain with S79G, N81Y, R84E, D85S
notes: Second-generation Loop library clone
B10 showed a Kd (recombinant human CD2 [3]) of 0.082 µM.

B11: ML3d1-Pfe (Fc fusion)
LFA3 domain-Fc fusion chain: B2 LFA3 domain-Fc fusion chain with S79A, N81Y, D85Q
notes: as for B10
Work on B11 yielded a Kd (recombinant human CD2 [3]) of 0.052 µM.
